Experimental data published in PubChem BioAssay AID504332 (National Center for Advancing Translational Sciences (NCATS), 2011).
The whole screen tested about 350,000 compounds, of which about 31,000 (8.9%) were called active. The shares of active, inactive and inconclusive entries below differ from those in the screen. Calls follow the shape of the dose curve; as a rule, active = well fitted inhibition curve with a large enough effect; inconclusive = small, poorly fitted or top-dose-only effect; inactive = no such curve, though single readings can be large or run the other way. Potencies beside an inconclusive call are fits to weak or partial responses and may not hold up.

Each compound was assayed against Histone-lysine N-methyltransferase EHMT2 (Homo sapiens) (UniProt Q96KQ7) (assay: qHTS Assay for Inhibitors of Histone Lysine Methyltransferase G9a). Settings: G9a H3K9 monomethylation, AlphaScreen, 2 h; activity, negative = inhibition: at 59 µM (top of the series) unless noted.
Outline: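 Using a bead-based AlphaScreen, monomethylated H3K9 product from 2 h room-temperature reactions (G9a 20 nM, peptide 500 nM, SAM 20 uM) was detected with 0.5 ug/mL rabbit anti-H3K9me1 antibody.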
% is scaled to controls: 0 for no effect and ±100 for the full control effect; potency is read from the fitted curve at half-maximal effect; tags tell the direction and shape of the fitted curve.
Also: nearly all actives have a fitted effect of over 75% in size.

Chain of UniProt Q96KQ7 (Q96KQ7 whole entry, looked up): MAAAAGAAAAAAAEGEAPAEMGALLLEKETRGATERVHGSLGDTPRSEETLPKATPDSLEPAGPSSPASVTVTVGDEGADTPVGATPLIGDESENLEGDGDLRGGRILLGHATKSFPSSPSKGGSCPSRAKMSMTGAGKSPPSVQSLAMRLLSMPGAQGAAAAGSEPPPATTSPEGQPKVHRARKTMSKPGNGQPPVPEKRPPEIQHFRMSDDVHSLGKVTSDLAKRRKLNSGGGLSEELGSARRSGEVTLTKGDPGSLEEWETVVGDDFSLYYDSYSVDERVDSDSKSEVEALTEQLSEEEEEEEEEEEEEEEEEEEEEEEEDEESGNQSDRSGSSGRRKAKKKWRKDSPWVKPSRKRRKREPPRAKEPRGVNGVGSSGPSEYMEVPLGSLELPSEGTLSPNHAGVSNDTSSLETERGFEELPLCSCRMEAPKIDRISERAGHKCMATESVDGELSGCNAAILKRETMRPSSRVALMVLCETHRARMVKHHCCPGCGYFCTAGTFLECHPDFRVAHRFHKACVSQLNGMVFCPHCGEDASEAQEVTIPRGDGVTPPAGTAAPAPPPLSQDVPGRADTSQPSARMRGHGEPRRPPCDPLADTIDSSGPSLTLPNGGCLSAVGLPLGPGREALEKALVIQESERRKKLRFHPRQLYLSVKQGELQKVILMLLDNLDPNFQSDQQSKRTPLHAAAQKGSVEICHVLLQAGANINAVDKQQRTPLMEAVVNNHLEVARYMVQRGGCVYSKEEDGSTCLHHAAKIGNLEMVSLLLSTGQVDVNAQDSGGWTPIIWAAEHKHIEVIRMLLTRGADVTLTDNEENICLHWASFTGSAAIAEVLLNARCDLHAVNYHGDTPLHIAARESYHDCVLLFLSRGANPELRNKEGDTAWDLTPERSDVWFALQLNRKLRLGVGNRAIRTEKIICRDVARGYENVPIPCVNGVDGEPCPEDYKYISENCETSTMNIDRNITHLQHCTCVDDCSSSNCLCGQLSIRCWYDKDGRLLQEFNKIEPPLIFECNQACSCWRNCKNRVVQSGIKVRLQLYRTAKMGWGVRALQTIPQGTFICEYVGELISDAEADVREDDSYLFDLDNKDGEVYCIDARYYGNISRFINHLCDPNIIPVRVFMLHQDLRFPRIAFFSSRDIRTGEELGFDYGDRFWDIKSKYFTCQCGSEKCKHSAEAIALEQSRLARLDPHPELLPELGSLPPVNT

Compound	activity, negative = inhibition	Potency
CCOc1ccc2nc(N3CCCC(C(=O)Nc4c(C)cccc4C)C3)sc2c1 (stereo not drawn)	inactive: 1.83%	–
CC(=O)Nc1ccc(C(=O)CSc2nnnn2C(C)C)cc1	–	inconclusive: 79.4 µM [inhibitor, single point]
CCC(C)NS(=O)(=O)c1ccc(NC(=O)C2CCCO2)cc1 (stereo not drawn)	–	inconclusive: 39.8 µM [inhibitor, partial curve]
CCS(=O)(=O)N1CCc2cc(C(=O)Nc3ccc(OC)c(Cl)c3)ccc21	–	inconclusive: 31.6 µM [inhibitor, single point]
COc1ccc(OC)c(CNC(=O)c2nn(-c3ccc(OC)c(Cl)c3)c(=O)c3c2c2ccccc2n3C)c1	inactive: 20.3%	–
COc1ccccc1N1CCN(C2CCCC(C)C2)CC1 (stereo not drawn)	–	inconclusive: 89.1 µM [inhibitor, single point]
COc1ccc(N2CC(C)Cn3c2nc2c3c(=O)n(Cc3ccccc3)c(=O)n2C)c(OC)c1 (stereo not drawn)	–	active: 6.31 µM
CCOC(=O)c1sc2ncn(CC(=O)Nc3ccc(N(C)C)cc3)c(=O)c2c1C	–	inconclusive: 1.41 µM [inhibitor, partial curve, poor fit]
CC1(C)Cc2c(C#N)c(N)sc(=S)c2CO1	–	active: 7.94 µM
CC(C(=O)Nc1ccc2c(c1)OCCO2)c1ccc([N+](=O)[O-])cc1 (stereo not drawn)	inactive: -4.85%	–
COCCCn1c(SCC(=O)Nc2sc3c(c2C#N)CCCC3)nnc1-c1ccncc1	–	inconclusive: 39.8 µM [inhibitor, single point]
COC(=O)c1cnn2c(C(F)(F)F)cc(-c3ccc(F)cc3)nc12	inconclusive: -62.2% [inhibitor] [at 102 µM]	–
COc1ccc(CCNC(=O)CCCn2c(=O)c3ccccc3n(Cc3cccc(Cl)c3)c2=O)cc1OC	inactive: 10.7%	–
O=C(COC(=O)CCNS(=O)(=O)c1cccs1)Nc1cc(C(F)(F)F)ccc1Cl	inactive: -10.3% [at 2.33 µM]	–
COc1ccc(-c2noc(CN(C(=O)COc3cc(C)c(Br)c(C)c3)C(C)C)n2)cc1	inactive: 48.1%	–
Nc1c(C(=O)Nn2cnnc2)cc([N+](=O)[O-])cc1[N+](=O)[O-]	–	active: 50.1 µM
CCN(CC)CCN1C(=O)C(O)=C(C(=O)c2cccs2)C1c1ccc(C)o1 (stereo not drawn)	inconclusive: -82.4% [inhibitor]	–
COc1cccc(C2=CC(c3ccc(N(C)C)cc3)n3ncnc3N2)c1 (stereo not drawn)	–	active: 39.8 µM
Cc1noc(C)c1S(=O)(=O)N(CC(=O)NCc1ccc2c(c1)OCO2)c1ccc(C(C)C)cc1	–	inconclusive: 79.4 µM [inhibitor, partial curve, poor fit]
CCN(CC)c1ccc(NS(=O)(=O)c2ccc(-c3cnc(C4CC4)o3)cc2)c(C)c1	–	inconclusive: 4.47 µM [inhibitor, single point]
Cc1ccc(OCC(=O)N2CCC(C)CC2)c([N+](=O)[O-])n1	–	inconclusive: 4.47 µM [inhibitor, single point]
CCOc1ccccc1N1CCN(Cc2cn[nH]c2-c2ccc(F)cc2)CC1	–	inconclusive: 89.1 µM [inhibitor, single point]

Compound	activity, negative = inhibition	Potency
Cc1nnc(-c2ccccc2)c(=O)n1/N=C/c1c(O)ccc2ccccc12	inconclusive: -78.6% [inhibitor]	–
Cc1cc(C(=O)NNC(=O)Cc2ccc(Cl)c(Cl)c2)c(C)o1	–	inconclusive: 89.1 µM [inhibitor, partial curve, poor fit]
Cc1ccc(C(=O)N2CC(C)CC(C)C2)cc1NC1=NC2CS(=O)(=O)CC2S1 (stereo not drawn)	inactive: -0.395% [at 102 µM]	–
CCOC(=O)c1[nH]c2c(c1Cc1ccccc1)C(=O)CC(c1ccc(Cl)cc1)C2 (stereo not drawn)	inactive: -18.9%	–
COc1ccc(NC(=O)CN2CCCN(S(=O)(=O)c3ccc(F)cc3)CC2)c(OC)c1	–	inconclusive: 35.5 µM [inhibitor, partial curve, poor fit]
N#CC1=C(SCC(=O)c2ccc(Cl)cc2)NC2=C(C(=O)CCC2)C1c1ccco1 (stereo not drawn)	inconclusive: -71.4% [inhibitor]	–
Cc1ccc(CC(=O)Nc2ccc(S(=O)(=O)Nc3ncccn3)cc2)cc1	inactive: -18% [at 102 µM]	–
Cc1noc(C)c1C(=O)Nc1ccc(N(C)C)cc1	–	inconclusive: 8.91 µM [inhibitor, partial curve, poor fit]
Cc1nn(Cc2ccc(F)cc2)c(C)c1NC(=O)c1cc(CC(C)C)on1	inactive: -7.61%	–
C1=CC2CC1CC2CN1CCN(c2ccccc2)CC1 (stereo not drawn)	–	inconclusive: 3.55 µM [inhibitor, partial curve, poor fit]
CC(C)Sc1nc2ccccc2n1CC(=O)O	–	inconclusive: 0.891 µM [inhibitor, partial curve, poor fit]
Cc1ccc(NC(=O)COc2coc(CN3CCc4ccccc4C3)cc2=O)cc1Cl	–	inconclusive: 50.1 µM [inhibitor, partial curve]
CCOc1ccccc1NC(=O)c1sc2nc3n(c(=O)c2c1C)CCCCC3	inactive: -1.23%	–
COCCNc1nnc(SCC(=O)Nc2sc3c(c2C(=O)c2ccccc2)CCCC3)s1	–	active: 44.7 µM
COCCOC(=O)c1c(C)n(S(=O)(=O)c2ccc(C)cc2)c2ccc(NS(=O)(=O)c3ccc(C)cc3)cc12	–	inconclusive: 25.1 µM [inhibitor, partial curve, poor fit]
COc1cc(C(=O)Nc2ccc(NC(=O)C(C)C)nc2)cc(OC)c1OC	–	inconclusive: 0.447 µM [inhibitor, full curve, poor fit]
O=C(CSc1nnc(COc2ccc(Cl)cc2)n1Cc1ccco1)c1ccccc1F	–	inconclusive: 31.6 µM [inhibitor, single point]
CCOC(=O)c1ccc(NC(=O)c2c(NC(C)=O)sc3c2CCC(C)C3)cc1 (stereo not drawn)	–	inconclusive: 39.8 µM [inhibitor, single point]
COc1cccc(C(c2sc3nc(-c4ccco4)nn3c2O)N2CCC(O)CC2)c1 (stereo not drawn)	–	inconclusive: 25.1 µM [inhibitor, single point]
COC(=O)c1nc(NC(=O)C(C)C)n[nH]1	–	active: 31.6 µM
Nc1c(-c2ccccc2)n[nH]c1-c1ccccc1	–	inconclusive: 1.12 µM [inhibitor, single point]
